Reference: PubChem BioAssay AID488969 (Vanderbilt High Throughput Screening Facility, 2010)
Over roughly 110,000 compounds, “z-score” has its median near -0.1; the highest 2% begin near 2. Some of the results follow. Activity calls are given as the source filed them.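 The calls were made as follows: active = z-score in the third read window above 3 or below -3; inactive = the rest.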

target: Metabotropic glutamate receptor 8 (Rattus norvegicus) (UniProt P70579); test: rat mGluR8 modulators via GIRK flux, primary screen, cell-based, thallium flux, HTS (AID 488969); conditions: HEK293 rat mGluR8, GIRK (G protein-gated inwardly rectifying potassium channel) thallium flux, FluoZin2; at 10 µM; stronger effect = higher value; submaximal glutamate (EC20) added with thallium
UniProt P70579, sequence (P70579 whole entry, looked up): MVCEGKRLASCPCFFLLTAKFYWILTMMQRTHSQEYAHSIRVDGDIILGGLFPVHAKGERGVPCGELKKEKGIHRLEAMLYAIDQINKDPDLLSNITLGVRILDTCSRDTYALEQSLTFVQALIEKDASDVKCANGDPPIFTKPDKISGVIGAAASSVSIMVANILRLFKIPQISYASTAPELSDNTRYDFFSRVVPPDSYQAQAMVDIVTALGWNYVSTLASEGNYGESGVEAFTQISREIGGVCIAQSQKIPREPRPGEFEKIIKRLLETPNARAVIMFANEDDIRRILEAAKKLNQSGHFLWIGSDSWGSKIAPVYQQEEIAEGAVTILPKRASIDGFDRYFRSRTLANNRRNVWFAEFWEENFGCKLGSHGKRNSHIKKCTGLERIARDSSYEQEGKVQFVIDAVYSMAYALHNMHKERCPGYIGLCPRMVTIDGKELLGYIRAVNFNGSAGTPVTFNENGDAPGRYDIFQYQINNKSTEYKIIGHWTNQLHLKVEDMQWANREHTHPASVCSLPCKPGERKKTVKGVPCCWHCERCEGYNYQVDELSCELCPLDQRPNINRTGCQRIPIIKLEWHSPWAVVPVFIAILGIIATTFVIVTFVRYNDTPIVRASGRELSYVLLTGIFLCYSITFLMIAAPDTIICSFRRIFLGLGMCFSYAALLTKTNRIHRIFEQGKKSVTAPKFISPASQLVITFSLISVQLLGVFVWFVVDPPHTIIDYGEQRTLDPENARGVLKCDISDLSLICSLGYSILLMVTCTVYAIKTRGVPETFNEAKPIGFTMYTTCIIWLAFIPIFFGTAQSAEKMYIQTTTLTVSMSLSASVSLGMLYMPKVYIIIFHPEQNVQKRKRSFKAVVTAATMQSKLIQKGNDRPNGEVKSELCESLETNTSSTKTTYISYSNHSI

Row | Structure (SMILES) | z-score
1 | Cn1nnnc1Sc1c(Cl)cccc1[N+](=O)[O-] | 0.113
2 | O=C(CNC(=O)C1CCCCC1)Nc1ccccc1 | -0.229
3 | N#Cc1nc(-c2ccco2)oc1N1CCN(c2cccc(Cl)c2)CC1 | -0.331
4 | CCOC(=O)CNC(=O)c1cn(CC(C)C)c(=O)c2cc(OC)c(OC)cc12 | 0.1
5 | CC(C)CC(=O)NC(=S)N1CCCCCC1 | 0.255
6 | Cc1occc1-c1nnc(SCC(=O)Nc2ccccc2)n1Cc1ccccc1 | -0.4
7 | O=C(c1ccc(COc2c(F)c(F)c(F)c(F)c2F)o1)N1CCOCC1 | -1.74
8 | CC(=O)c1cccc(NC(=O)CC2Oc3ccc(C)cc3NC2=O)c1 (configuration not stated) | -0.586
9 | Cc1nnc2n(C3CCCCC3)c(=O)c3c4c(sc3n12)COC(C)(C)C4 | active: -3.22
10 | CC(Oc1ccc(Cl)cc1Cl)c1nc(-c2ccc(NC(=O)c3ccncc3)cc2)no1 (configuration not stated) | 0.343
11 | CC1=CCC2C(=O)N(c3ccccc3OC(=O)c3ccccc3F)C(=O)C2C1 (configuration not stated) | -0.238
12 | CCn1c(SCC(=O)Nc2cc(F)ccc2C)nnc1-c1ccccc1O | -0.432
13 | CCCOc1ccc(-c2nc(C#N)c(N3CCc4ccccc4C3)o2)cc1 | 0.2
14 | O=C(CCNC(=O)c1ccccc1Cl)Nc1nc(-c2ccc3ccccc3c2)cs1 | -0.106
15 | COC(=O)c1ccccc1NC(=O)C(=O)NCC1CCCO1 (configuration not stated) | -0.0272
16 | COc1ccccc1-c1c(C)oc2cc(OCC(=O)OCc3ccccc3)ccc2c1=O | 1.27
17 | CC(=O)c1c(C)[nH]c(C(=O)COC(=O)CCSc2ccccc2)c1C | 0.265
18 | COc1cccc2[nH]c3c(N4CCC(C)CC4)ncnc3c12 | -0.0729
19 | O=C(O)c1ccc2c(c1)C(=O)N(Cc1ccc3c(c1)OCO3)C2=O | -0.312
20 | COc1ccc(-c2csc(NC(=O)Cn3nc(C)cc3C)n2)cc1 | 0.319
21 | CCOc1ccc(-n2nnc3c(=O)n(CC(=O)N4CCCc5ccccc54)cnc32)cc1 | 0.852
22 | CCCn1c(C)cc(/C=C(\C#N)C(=O)OCC(=O)Nc2cc(OC)c(OC)c(OC)c2)c1C | -0.21
23 | Nc1nc(-c2ccco2)nn1C(=O)c1ccccc1 | 0.00452

Row | Structure (SMILES) | z-score
24 | CCOC(=O)Cn1cc(C=O)c2ccccc21 | -0.0727
25 | COc1ccc(CN2CCSCC2)cc1O | -0.199
26 | O=C(NC1CC1)C1=COCCO1 | -0.21
27 | COc1ccc(CNC(=O)CN(Cc2ccc(Cl)cc2)S(C)(=O)=O)cc1 | -0.615
28 | Cc1cc(C)c(NC(=O)C2CCCCN2C)c(C)c1 (configuration not stated) | -0.0533
29 | Clc1ccc(-c2nnc(-c3ccccc3)nc2N2CCSCC2)cc1 | -0.0425
30 | O=C(CCl)Nc1ccc(Oc2cnc3ccccc3n2)cc1 | -0.78
31 | COC(=O)CN(c1nc(C)cc(OC)n1)S(=O)(=O)c1ccccc1 | -0.5
32 | COc1ccccc1CN(Cc1nc2ccccc2c(=O)[nH]1)C(=O)Nc1cccc(C)c1 | -0.0538
33 | Cc1ccc(N2C(=N)SCC2=O)cc1Cl | -0.127
34 | CCN(CC)c1ccc(/C=N/NC(=O)CN2CCCc3ccccc32)cc1 | -0.854
35 | Cn1c(=O)c2cc(S(=O)(=O)NCCC(=O)NCCc3ccc(Cl)cc3)ccc2n(C)c1=O | 0.3
36 | COc1ccc(CCCc2nnc(SCC(=O)Nc3nc(C)cs3)n2C)cc1 | 0.338
37 | CCCC(=O)NC(=S)N1CCN(c2ccc([N+](=O)[O-])cc2)CC1 | 0.00262
38 | O=C1OC2(CCCCC2)OC(=O)C1=CNc1ccc2c(c1)OCO2 | 0.207
39 | CCc1cccc(NC(=O)c2ccc(NS(=O)(=O)c3c(C)noc3C)cc2)c1 | 0.228
40 | COc1ccccc1N(CN1C(=O)c2ccccc2C1=O)C(=O)c1cccc(C)c1 | -1.21
41 | CCn1c(COc2cccc(C)c2)nc2ccccc21 | -0.292
42 | COc1cc(NS(=O)(=O)c2ccc(NC(=S)NC(=O)C(C)(C)C)cc2)nc(OC)n1 | -0.11
43 | CCCCNC(=O)COC(=O)c1ccc(Cl)c(S(=O)(=O)N2CCCC2)c1 | -1.75
44 | O=C(CC1Oc2ccccc2NC1=O)NCCCN1CCCC1=O (configuration not stated) | 1.28
45 | Cc1ccc(OC(C)C(=O)Nc2ccc(C)c(S(=O)(=O)Nc3ccc(C)cc3C)c2)cc1 (configuration not stated) | 0.0199
46 | CC(C)(C)Nc1nc(C(N)=O)nc(N2CCOCC2)n1 | 0.297

Row | Structure (SMILES) | z-score
47 | O=C(Nc1ccccc1)c1ccccc1CCc1ccccc1 | -0.961
48 | Cc1ccc(NC(=S)NCc2ccccn2)cc1 | 0.051
49 | CC1Cc2cc(/C(O)=C3/C(=O)C(=O)N(CCN4CCOCC4)C3c3cccc(O)c3)ccc2O1 (configuration not stated) | 0.287
50 | COCCCN(C(C)=O)c1nc(-c2ccccc2)cs1 | 1.18
51 | Clc1ccccc1C(c1nnnn1Cc1ccco1)N1CCN(Cc2ccco2)CC1 (configuration not stated) | -0.495
52 | O=C(CSc1nnc2scc(-c3ccccc3)n12)Nc1nsc(-c2ccc(Cl)cc2)n1 | 0.064
53 | COc1ccc(NC(=O)c2oc3ccccc3c2NC(=O)c2ccco2)cc1 | -0.249
54 | Cc1nc2cccc(C(=O)NCc3ccccc3)c2o1 | -0.869
55 | COc1ccc(C2C(C#N)C(C#N)N3CCCN23)cc1 (configuration not stated) | -0.362
56 | O=P1(O)C=C(c2ccccc2)NC(c2ccccc2)=C1 | -0.601
57 | COc1ccc(C(=O)Nc2cccc(C(C)=O)c2)cc1S(=O)(=O)N1CCOCC1 | -0.0369
58 | CN(C)S(=O)(=O)c1ccc(C(=O)NCc2ccccc2)cc1 | -0.487
59 | CNC(=O)/C=C1\NC(C)(C)Cc2ccccc21 | -0.218
60 | CCOc1cc(C#N)c(NC(=O)c2cccnc2Cl)cc1OCC | 0.172
61 | c1ccc(-n2nnnc2SCc2ccccn2)cc1 | 0.236
62 | CCOC(=O)C1CCCN(C(=O)Cc2c(F)cccc2Cl)C1 (configuration not stated) | -0.847
63 | O=C(NCc1ccco1)[C@@H]1CCCN1C(=O)c1cccs1 | 0.505
64 | Cc1cc(C)c(Cc2c(C)nc3c(C(=O)NCc4ccco4)cnn3c2C)c(C)c1 | -0.167
65 | O=C(COc1ccc(/C=N/NC(=O)c2ccc(O)cc2)cc1)Nc1ccc([N+](=O)[O-])cc1 | 0.00315
66 | S=C1NCCOCCOCCOCCOCCNC(=S)NCCOCCOCCOCCOCCN1 | 0.00625
67 | O=C(O)C(CCCCN1C(=O)C2C3C=CC(C3)C2C1=O)N1C(=O)C2C3C=CC(C3)C2C1=O (configuration not stated) | -0.105
68 | CONC(=O)C1CCN(C(=O)OCc2ccccc2)CC1 | 0.068
69 | CC(OC(=O)c1cccs1)C(=O)NCc1cccs1 (configuration not stated) | 0.042

Row | Structure (SMILES) | z-score
70 | O=c1c(N2CCCCC2)coc2ccccc12 | -0.859
71 | CNc1nc2ccccc2n1/N=C/c1cccc(OC)c1OC | -1.51
72 | CN(N)C(=S)NCc1ccccc1 | -0.0266
73 | c1ccc(-c2noc(-c3cccnc3)n2)nc1 | 0.0764
74 | CCn1c(=O)c(C(=O)Nc2cccnc2)c(O)c2ccccc21 | 0.352
75 | O=c1[nH]nc(Cc2ccccc2)c2ccccc12 | -0.437
76 | Cc1ccc(-n2[nH]c(C)c(/C=N/Nc3ccc([N+](=O)[O-])cc3[N+](=O)[O-])c2=O)cc1C | -0.809
77 | COc1ccc(NC(=O)c2cccc(S(=O)(=O)N3CCOCC3)c2)cn1 | -0.0155
78 | Cc1nnc(SCc2cn3ccsc3n2)n(N)c1=O | 0.619
79 | O=C(Nc1ccc(Cl)cc1)NC1(C(=O)NCCCN2CCOCC2)CCCCC1 | 0.295
80 | N#Cc1c(-c2ccc(Br)cc2)nc2n(c1=O)CCCS2 | -0.096
81 | COc1ccc(Cl)cc1N(C(=O)Nc1cccc(Cl)c1)C1=NCC(C)S1 (configuration not stated) | -0.171
82 | Cc1ccc2cc(C#N)c(SCC(=O)N3CCCc4ccccc43)nc2c1 | -0.381
83 | Cc1ccc(S(=O)(=O)NC2CCC(C(=O)O)CC2)cc1 (configuration not stated) | -0.708
84 | Fc1ccc(Br)cc1C1C=C(c2ccc(Br)cc2)Nc2ncnn21 (configuration not stated) | -0.401
85 | Fc1ccc(CCNC(=S)Nc2ccc(F)cc2)cc1 | 0.103
86 | N#Cc1c(N)sc2c1CCN(C(=O)OCc1ccccc1)C2 | -0.0534
87 | CCCN1Cc2cccc(C(=O)NCc3ccccc3OC)c2C1=O | -0.286
88 | CCOC(=O)CSc1nnc(Cn2nnc(-c3ccccc3)n2)n1C | -0.131
89 | CCCCn1c(SCC(=O)Nc2ccccc2C(F)(F)F)nc2ccsc2c1=O | 0.00651
90 | CCOC(=O)C(=Cc1ccc(F)cc1)C(=O)OCC | -0.17
91 | Cc1nc(C)n(CC(O)COc2ccc(C(=O)c3ccccc3)cc2)n1 (configuration not stated) | 0.00952
92 | CCN1c2ccccc2NC2C1C(C(C)=O)C(=O)N2c1ccc(Cl)cc1 (configuration not stated) | -0.229

Row | Structure (SMILES) | z-score
93 | CC1(C)CC(=O)C(C=NCCN2CCN(C(=S)Nc3ccc(F)cc3)CC2)=C(O)C1 | -0.0379
94 | COCCOC(=O)c1c(C)oc2ccc(OC(=O)c3cccs3)cc12 | -0.232
95 | CN1c2ccsc2C(O)=C(C(=S)Nc2ccccc2)S1(=O)=O | 0.327
96 | CCCc1nnc(SCC(=O)O)n1/N=C/c1ccc2c(c1)OCO2 | -0.285
97 | COc1ccc(OC)c(CCNC(=O)CC2Oc3ccccc3NC2=O)c1 (configuration not stated) | -0.218
98 | COc1ccc(NC2=NCCC(=O)N2Cc2cccs2)cc1 | -0.358
99 | Cn1c(=O)[nH]c(=O)c2c1nc(NCCCn1ccnc1)n2CCOc1ccccc1 | 0.727
100 | COc1ccc(CN(Cc2ccc(OC)cc2)S(=O)(=O)c2ccc(-n3cnnn3)c(C)c2)cc1 | 0.226
101 | CCN=C1Cn2c(nc3scc(-c4ccccc4)c3c2=O)CN1CC | 0.129
102 | C=CCN1C(=O)CN=C1Nc1cccc(C)c1 | -0.337
103 | CCOC(=O)c1ccc(C(=O)OCC)c(NC(=S)Nc2ccc([N+](=O)[O-])cc2OC)c1 | 1.04
104 | Cc1cc(C)c(NC(=O)CSc2ccc3nnc(CCNC(=O)c4ccccc4)n3n2)c(C)c1 | 0.745
105 | Cc1ccc(CNC(=O)C2(c3cccs3)CCOCC2)cc1 | -0.222
106 | O=P(c1ccccc1)(c1ccccc1)C(c1ccco1)N1CCOCC1 (configuration not stated) | 1.06
107 | Cn1nnc2cc(NC(=O)N3CCN(c4ccccn4)CC3)ccc21 | 0.387
108 | C=C(C)Cn1c(CCn2c3ccccc3c3ccccc32)n[nH]c1=S | 0.0347
109 | O=C1C=C(c2ccccc2)C[C@H](c2cccs2)[C@H]1n1nnc([N+](=O)[O-])n1 | -0.206
110 | CCOC(=O)C1=C(C)Nc2ncnn2C1c1ccccc1F (configuration not stated) | 0.124
111 | Cc1nc(CSc2nnc3scc(-c4ccc(Cl)cc4)n23)cs1 | -0.456
112 | Cc1ccccc1OCc1nnc(SCC(=O)Nc2ccc(N3CCOCC3)c(Cl)c2)n1C | -0.103
